From the supplement of paper PMC10600219
Structures can show the parent of a compound that is named as a salt. In all, about 2,800 compounds were measured (“cell viability relative to vehicle”: median about 1.1, lowest 2% from about 0.19 on). The list shows a part of the results.

These compounds were tested on NCI-H2228 parental (assay: cell viability relative to vehicle (fraction of vehicle); NCI-H2228 is an ALK-positive lung cancer line and DTP means drug-tolerant persister; higher = less growth inhibition). Conditions: 100 nM; treatment time 6 days.
Outline: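 Each value is viability relative to vehicle-treated cells, measured as ATP with the CellTiter-Glo 3D Cell Viability Assay. Parental NCI-H2228 cells and drug-tolerant persisters (1000 nM targeted drug, 13 days) in 384-well plates received the 3114-agent TargetMol anti-cancer compound library at 100 nM, or DMSO, and were read 6 days later.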
`COc1cc2ncnc(Nc3ccc(F)c(Cl)c3)c2cc1NC(=O)/C=C/CN1CCCCC1` [Dacomitinib] gave a cell viability of 1.05. Compound `O=c1cc(N2CCOCC2)oc2c(-c3ccc4c(c3)OCCO4)csc12` has a cell viability of 1.14. Work on `CCCCC1C(=O)N(c2ccccc2)N(c2ccccc2)C1=O` [Phenylbutazone] yielded a cell viability of 1.34. `C=C1CCC[C@]2(C)C[C@]3(O)OC(=O)C(C)=C3C[C@@H]12` [Atractylenolide III] showed a cell viability of 1.1. With `O=C(Nc1ccc2[nH]nc(-c3ccncc3)c2c1)[C@@H]1CCN(CC(=O)N2CCN(c3ccc(-c4ncccn4)cc3)CC2)C1` the cell viability was 1.06. `C=CC(=O)Nc1cccc(Oc2nc(Nc3ccc(N4CCN(C)CC4)c(F)c3)nc3[nH]ccc23)c1` [Avitinib] gave a cell viability of 0.935. `CNCC[C@@H](Oc1ccccc1C)c1ccccc1` [Atomoxetine hydrochloride] showed a cell viability of 1.12. In the case of `CC(C)(C)c1cc(NC(=O)Nc2ccc(Oc3ccnc4[nH]c(=O)cnc34)cc2F)n(-c2ccccc2)n1`, the cell viability is reported as 1.15. `CC(C)(O)CNc1nc(Nc2ccnc(C(F)(F)F)c2)nc(-c2cccc(C(F)(F)F)n2)n1` [Enasidenib] gave a cell viability of 0.984. `Cc1c(CN2CCN(S(C)(=O)=O)CC2)sc2c(N3CCOCC3)nc(-c3cnc(N)nc3)nc12` showed a cell viability of 0.664. `CC/C=C\CC1C(=O)CCC1CC(=O)OC` (racemic) [(±)-Methyl Jasmonate] showed a cell viability of 1.13. `CC(Cc1ccc(O)c(O)c1)C(C)Cc1ccc(O)c(O)c1` (configuration not stated) [Nordihydroguaiaretic acid] showed a cell viability of 1.12. `Nc1ncc(-c2ccnc(Nc3ccncc3)n2)c(CC2CC2)n1` was tested, and the cell viability was 1.09. With `C[C@@H](Oc1cc(-c2cnn(C3CCNCC3)c2)cnc1N)c1c(Cl)ccc(F)c1Cl` [Crizotinib] the cell viability was 0.777. `N[C@@H](CCNCc1ccc(Cl)cc1)C(=O)N1CCCCC1` was tested, and the cell viability was 1.14. For `CCNC(=O)Nc1ccc(-c2nc(N3CCOC[C@@H]3C)c3c(n2)C(C)(C)S(=O)(=O)C3)cc1`, the cell viability was 0.547. `Cc1cc(Nc2ncc(Cl)c(Nc3ccccc3S(=O)(=O)C(C)C)n2)c(OC(C)C)cc1C1CCNCC1` gave a cell viability of 0.555. `C/C(O)=C(\C#N)C(=O)Nc1ccc(C(F)(F)F)cc1` [Teriflunomide] was tested, and the cell viability was 1.14. In the case of `Cn1cc(/C=C/C(=O)c2cccc(F)c2)cc1/C=C/C(=O)NO`, the cell viability is reported as 1.05. With `Cc1nc(N(C)C(=O)Cc2ccc(-c3ccccn3)cc2)sc1S(N)(=O)=O` [Pritelivir] the cell viability was 0.87. `NS(=O)(=O)Oc1ccc2c3c(c(=O)oc2c1)CCCCC3` [Irosustat] was tested, and the cell viability was 1.04. `O=P(O)(O)O[C@H]1[C@H](OP(=O)(O)O)[C@@H](OP(=O)(O)O)[C@H](OP(=O)(O)O)[C@@H](OP(=O)(O)O)[C@H]1OP(=O)(O)O` [Phytic acid] gave a cell viability of 1.19. With `COc1ccc(CCc2cc(OC)c(OC)c(OC)c2)cc1O` [Erianin] the cell viability was 0.335. With `C[C@@H]1O[C@@H](O[C@H]2[C@H](Oc3cc(O)c4c(c3)O[C@H](c3ccc(O)cc3)CC4=O)O[C@H](CO)[C@@H](O)[C@@H]2O)[C@H](O)[C@H](O)[C@H]1O` [Naringin] the cell viability was 0.96. Compound `Cn1cc(C2=C(c3cn(CCCSC(=N)N)c4ccccc34)C(=O)NC2=O)c2ccccc21` [Ro 31-8220 Mesylate] has a cell viability of 1.04. Compound `Nc1ccccc1NC(=O)CCCCCCC(=O)Nc1ccccc1` has a cell viability of 1.09. Compound `O=C(NCc1ccc2c(c1)OCO2)c1c(Cl)cccc1Cl` has a cell viability of 1.13. With `C[C@H](CCC(=O)O)[C@H]1CC[C@H]2[C@@H]3C[C@H](O)[C@@H]4C[C@H](O)CC[C@]4(C)[C@H]3CC[C@]12C` [Hyodeoxycholic acid] the cell viability was 0.994. `N=C(N)c1ccc(N=NNc2ccc(C(=N)N)cc2)cc1` [Diminazene Aceturate] showed a cell viability of 1.02. `CCCOc1ccc(/C=C2\SC(=O)NC2=O)cc1` showed a cell viability of 1.11. `CC1(C)C(=O)N(CCN2CCC(C(=O)c3ccc(F)cc3)CC2)c2ccccc21` showed a cell viability of 1.22. In the case of `NC(=O)Nc1sc(-c2ccc(F)cc2)cc1C(N)=O`, the cell viability is reported as 1.07. With `C[C@@H]1O[C@@H](OC[C@H]2O[C@@H](Oc3c(-c4ccc(O)c(O)c4)oc4cc(O)cc(O)c4c3=O)[C@H](O)[C@@H](O)[C@@H]2O)[C@H](O)[C@H](O)[C@H]1O` [Rutin] the cell viability was 1.07. `C=C[C@H]1[C@H](O[C@@H]2O[C@H](CO)[C@@H](O)[C@H](O)[C@H]2O)OC=C2C(=O)OCC[C@]21O` [Swertiamarin] was tested, and the cell viability was 1.11. `Cc1nn(C)c(COc2ccc(N3CCN(S(=O)(=O)N(C)C)CC3)cc2)c1-c1cccc2c(CCCOc3cccc4ccccc34)c(C(=O)O)n(CCN3CCOCC3)c12` gave a cell viability of 1.05. `CCCC(=O)Nc1ccc(OCC(O)CNC(C)C)c(C(C)=O)c1` (configuration not stated) [Acebutolol hydrochloride] was tested, and the cell viability was 0.936. Compound `CCCCCC=CC(=O)CCc1ccc(O)c(OC)c1` [6-Shogaol] has a cell viability of 1.05. With `CN1CCN(c2ccc(Nc3cc(-c4cccc(-n5ccc6cc(C7CC7)cc(F)c6c5=O)c4CO)cn(C)c3=O)nc2)CC1` the cell viability was 1.06. Work on `CN(C)C(=O)c1cc2cnc(Nc3ccc(N4CCNCC4)cn3)nc2n1C1CCCC1` [Ribociclib] yielded a cell viability of 1.07. In the case of `CC(=O)O[C@]1(C(C)=O)CC[C@H]2[C@@H]3C=C(C)C4=CC(=O)CC[C@]4(C)[C@H]3CC[C@@]21C` [Megestrol acetate], the cell viability is reported as 1.1. `NC(=O)c1cnc(-c2ccc(C3(N)CCC3)cc2)c(-c2ccccc2)c1` was tested, and the cell viability was 1.02. `Nc1nnc(-c2cccc(Cl)c2Cl)c(N)n1` [Lamotrigine] was tested, and the cell viability was 1.13. Work on `Cc1cc(Nc2cc(CN3CCOCC3)c3nc(C)c(Cc4ccc(Cl)cc4F)n3n2)n[nH]1` [Gandotinib] yielded a cell viability of 0.984. Compound `CCOC(=O)N[C@@H]1CC[C@@H]2[C@@H](C1)C[C@H]1C(=O)O[C@H](C)[C@H]1[C@H]2/C=C/c1ccc(-c2cccc(F)c2)cn1` [Vorapaxar] has a cell viability of 0.872. `CCOC(=O)N[C@@H]1CC[C@@H]2[C@@H](C1)C[C@H]1C(=O)O[C@H](C)[C@H]1[C@H]2/C=C/c1ccc(-c2cccc(F)c2)cn1` [Vorapaxar sulfate] was tested, and the cell viability was 1.12. `CC[C@@]1(O)C(=O)OCc2c1cc1n(c2=O)Cc2cc3c(CN(C)C)c(O)ccc3nc2-1` [Topotecan hydrochloride] showed a cell viability of 0.0837. With `Nc1nc(=O)[nH]cc1F` [Fluorocytosine] the cell viability was 0.987.
